Measurements from publication PMC4336329 (PLoS ONE, 2015).
Out of some 310,000 compounds screened, about 2,200 (0.71%) showed an effect of 50% or more. The effect is printed as a negative number. This is one part of the list.

Target: human ether-à-go-go-related gene (hERG) potassium channel (human, UniProt Q12809)
Test: primary screen, population patch clamp on CHO cells stably expressing hERG

Chain of human ether-à-go-go-related gene (hERG) potassium channel (Q12809 whole entry, looked up): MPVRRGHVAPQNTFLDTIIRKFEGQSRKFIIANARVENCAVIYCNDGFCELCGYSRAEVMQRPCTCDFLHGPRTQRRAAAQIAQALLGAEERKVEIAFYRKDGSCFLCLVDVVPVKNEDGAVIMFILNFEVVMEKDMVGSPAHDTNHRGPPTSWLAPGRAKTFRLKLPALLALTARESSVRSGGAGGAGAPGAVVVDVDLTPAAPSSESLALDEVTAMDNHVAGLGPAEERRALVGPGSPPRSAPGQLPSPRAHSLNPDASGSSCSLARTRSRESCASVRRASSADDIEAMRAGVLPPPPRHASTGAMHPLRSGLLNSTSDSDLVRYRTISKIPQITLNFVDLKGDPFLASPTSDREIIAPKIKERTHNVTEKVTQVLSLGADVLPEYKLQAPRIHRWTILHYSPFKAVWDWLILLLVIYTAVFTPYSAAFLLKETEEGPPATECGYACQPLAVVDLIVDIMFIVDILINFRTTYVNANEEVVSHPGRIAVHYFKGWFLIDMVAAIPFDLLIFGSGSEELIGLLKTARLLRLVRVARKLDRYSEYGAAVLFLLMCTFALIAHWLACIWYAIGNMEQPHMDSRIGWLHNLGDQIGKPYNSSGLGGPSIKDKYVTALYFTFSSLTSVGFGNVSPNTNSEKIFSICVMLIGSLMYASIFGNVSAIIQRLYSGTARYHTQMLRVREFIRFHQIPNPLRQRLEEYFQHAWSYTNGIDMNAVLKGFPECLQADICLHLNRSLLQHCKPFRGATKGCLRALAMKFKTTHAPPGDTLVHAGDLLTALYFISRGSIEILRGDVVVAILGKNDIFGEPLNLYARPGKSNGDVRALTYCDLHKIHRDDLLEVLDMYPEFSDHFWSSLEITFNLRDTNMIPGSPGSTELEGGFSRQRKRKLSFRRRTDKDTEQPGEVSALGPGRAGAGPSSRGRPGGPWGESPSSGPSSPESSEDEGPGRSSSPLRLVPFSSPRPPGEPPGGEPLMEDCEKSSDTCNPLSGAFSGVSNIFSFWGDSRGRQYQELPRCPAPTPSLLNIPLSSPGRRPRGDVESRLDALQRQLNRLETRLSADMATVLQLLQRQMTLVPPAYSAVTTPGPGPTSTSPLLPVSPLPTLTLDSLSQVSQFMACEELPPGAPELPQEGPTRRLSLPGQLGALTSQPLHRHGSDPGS

SMILES | hERG current change (%, negative = inhibition) at 1uM [%]
O=C(CC12CC3CC(CC(Br)(C3)C1)C2)NC1CCCC1 | 9.5
Cc1ccc(-n2c(Cn3cnc4ccccc43)nnc2SCC(=O)O)cc1 | 6.25
O=C(N=C1SC2CS(=O)(=O)CC2N1Cc1ccc(F)cc1)C1CCCO1 (stereo not drawn) | -8.7
Cc1cccnc1NC(=O)c1ccc(OCc2c(C)noc2C)cc1 | 0.733
O=C(NC1CCCC1)C(c1ccccn1)N(C(=O)c1csnn1)C1CC1 (stereo not drawn) | 16.6
CC(N=Cc1c(O)c2ccccc2oc1=O)C(=O)O (stereo not drawn) | 8.42
COCCCNC(=S)N(CCCO)Cc1cc2cc3c(cc2[nH]c1=O)OCO3 | 13.5
CCOC(=O)c1cn2nc(-c3ccc(OCC)cc3)cc2nc1C1CCN(C(=O)OC(C)(C)C)CC1 | 10.1
CCOC(=O)c1sc2nc(N3CCOCC3)c3c(c2c1N)CCC3 | 13
CCn1c(-c2ccccc2)c(C(=O)CC#N)c2ccccc21 | 6.27
O=C(CCC1CCCCC1)Nc1c[nH]c(=O)[nH]c1=O | 3.17
O=[N+]([O-])c1ccc(N2CCN(S(=O)(=O)c3ccccc3[N+](=O)[O-])CC2)cc1N1CCc2ccccc2C1 | 5.81
COc1ccc(C)cc1S(=O)(=O)N(CC(=O)NCc1ccc(Cl)cc1)Cc1ccccc1 | 13.1
COC(=O)c1ccc(COC(=O)c2ccc(CS(=O)(=O)c3ccc(C)cc3)cc2)cc1 | 14.7
O=C(Nc1ccc(F)cc1F)c1c(C(F)(F)F)ccnc1Oc1ccc(Cl)cc1 | 12.9
CNc1oc(-c2ccccc2)nc1S(=O)(=O)c1ccc(C)cc1 | 11.9
COc1ccc(Cl)cc1S(=O)(=O)NCc1nc2nc(C)cc(C)n2n1 | 14.8
Cc1c(C#N)c2ccccc2n1CC(=O)NCCc1c[nH]c2ccccc12 | 9.69
CC(=O)N(C)c1ccc(NC(=O)Cc2cccs2)cc1 | 11.7
Cc1ccc(O)c(CNc2ccc(S(=O)(=O)Nc3nccs3)cc2)c1 | 10.9
CCC(C)NC(=O)CCn1c(-c2ccccc2)cc(C(C)=O)c1C (stereo not drawn) | 18.3
Cc1ccc(CNc2cnccn2)cc1 | 3.96
Cc1ccc(OCCC(=O)OCC(=O)C(C)(C)C)cc1 | -5.69

SMILES | hERG current change (%, negative = inhibition) at 1uM [%]
O=[N+]([O-])c1cc([N+](=O)[O-])c2cccnc2c1O | 11.1
Cc1nn(Cc2ccccc2)c2sc(C(=O)NCc3cccnc3)cc12 | 2.32
CN1CCN(S(=O)(=O)c2cnc(Cl)c(Br)c2)CC1 | 15.6
CCCn1c(C)cc(C(=O)COc2ccc(C)nc2[N+](=O)[O-])c1C | 5.04
Cc1ccc(OCCOCCn2cnc3ccccc3c2=O)c([N+](=O)[O-])c1.O=C(O)C(=O)O | -6.31
Cn1cc(CN2CCC[C@H]2CO)c(-c2cccc(Cl)c2)n1 | 1.6
CN(C)S(=O)(=O)c1ccc(C(=O)NCC(=O)N/N=C/c2ccco2)cc1 | 13.4
O=C(c1ccc2ccccc2n1)N1CCN(c2ccccc2O)CC1 | 4.36
Cc1cc(S(=O)(=O)Nc2ccc(C(=O)NCCCN3CCOCC3)cc2)ccc1F | 19.8
CCOc1cccc(C(=O)Nc2nccs2)c1 | 6.21
C/C(=N\NC(=S)Nc1ccccc1C)c1cc2ccccc2o1 | 10
CCCCC(=O)NC1(C(F)(F)F)NC(=O)N(Cc2ccccc2)C1=O (stereo not drawn) | 7.06
CC(=O)c1c(Nc2ccc3c(c2)OCCO3)oc(C)cc1=O | 6.03
COC(=O)c1ccc(C)c(NC(=O)CCSc2ccc(Cl)cc2)c1 | 10.3
CN=C(Nc1ccc(Cl)cc1)c1cccc(C(F)(F)F)c1 | 16.8
Cc1ccc(S(=O)(=O)NNC(=O)c2ccc(O)cc2)cc1 | 9.36
CN1Cc2c(N3CCOCC3)nc(SCc3ccccc3)c(C#N)c2CC1(C)C | 14.1
Cc1ccc(C)c2[nH]c(=O)c(C(c3nnnn3Cc3ccccc3)N3CCc4ccccc4C3)cc12 (stereo not drawn) | -0.939
Cc1cc(C(=O)NCC(=O)OC(C)C(=O)N2CCOCC2)ccc1[N+](=O)[O-] (stereo not drawn) | 4.55
O=C(CSc1nc2ccsc2c(=O)n1Cc1ccccc1)NCC1CCCO1 (stereo not drawn) | -2.18
COc1ccccc1NC(=O)N1CCCC(C(=O)Nc2cccc(C)c2C)C1 (stereo not drawn) | 6.02
O=C(Cn1nc(C(=O)O)c2ccccc2c1=O)Nc1ccccc1C(F)(F)F | -3.12
